{
  "source": "the supplement of paper PMC3334620",
  "note": "In all, about 33,000 sequences were measured (“E-score (-0.5 to 0.5)”: median about -0.04, highest 2% from about 0.36 on). Some of the results follow.",
  "data": [
    {"biological_target": "T1, Hmlalpha2 (UniProt P0CY09)", "T1 sequence": "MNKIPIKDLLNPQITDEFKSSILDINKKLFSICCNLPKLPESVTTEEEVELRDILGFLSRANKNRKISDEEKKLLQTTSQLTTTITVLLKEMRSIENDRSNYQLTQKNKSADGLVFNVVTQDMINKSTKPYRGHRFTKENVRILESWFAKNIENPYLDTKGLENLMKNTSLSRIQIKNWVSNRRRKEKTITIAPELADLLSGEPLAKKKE", "assay": "PBM E-score (8-mer binding enrichment) (E-score (-0.5 to 0.5)); higher = stronger / more preferred TF binding; most listed sequences are background and not binding sites", "conditions": "protein concentration: 200 nM; construct: GST-full length", "description": "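Universal 'all 10-mer' protein binding microarrays (Agilent AMADID 015681) probed with GST-tagged S. cerevisiae TFs (full-length or DBD) made by in vitro transcription/translation (PURExpress), about 100-200 nM. Bound TF was detected with fluorescent anti-GST. Each ungapped 8-mer (which stands for itself and its reverse complement) is scored by the PBM enrichment score (E-score), a modified Wilcoxon-Mann-Whitney statistic from -0.5 to +0.5, computed with the Universal PBM Analysis Suite. Scale: above 0.35 generally sequence-specific binding.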", "values": [
      {"sequence": "TAAATGTA", "PBM E-score": 0.38},
      {"sequence": "GAGGGTTA", "PBM E-score": -0.00948},
      {"sequence": "CCCCGCAC", "PBM E-score": -0.201},
      {"sequence": "AATGTAAC", "PBM E-score": 0.296},
      {"sequence": "AAATCTCA", "PBM E-score": -0.0212},
      {"sequence": "CAGAATAC", "PBM E-score": 0.208},
      {"sequence": "TGACCGCA", "PBM E-score": -0.0736},
      {"sequence": "CTCGAAGA", "PBM E-score": -0.0921},
      {"sequence": "ATCTAGAC", "PBM E-score": -0.0288},
      {"sequence": "GTCTGAGA", "PBM E-score": -0.143},
      {"sequence": "CATCTCAA", "PBM E-score": 0.136},
      {"sequence": "GACTTCCA", "PBM E-score": -0.332},
      {"sequence": "CGAGTGAA", "PBM E-score": 0.168},
      {"sequence": "GAAATGTA", "PBM E-score": 0.0891},
      {"sequence": "CGTCTGCA", "PBM E-score": 0.0591},
      {"sequence": "CGCTCAGC", "PBM E-score": -0.144},
      {"sequence": "AGATATGA", "PBM E-score": -0.0923},
      {"sequence": "AAACGCCT", "PBM E-score": -0.0535},
      {"sequence": "CAGATACG", "PBM E-score": -0.235},
      {"sequence": "CCACGTCA", "PBM E-score": 0.00927},
      {"sequence": "GATCGTGA", "PBM E-score": -0.12},
      {"sequence": "TGAATTCA", "PBM E-score": 0.235},
      {"sequence": "AGATGTTA", "PBM E-score": 0.201},
      {"sequence": "GGACATCA", "PBM E-score": -0.0127},
      {"sequence": "AAAAAGTT", "PBM E-score": -0.0414},
      {"sequence": "CATAGACG", "PBM E-score": 0.176},
      {"sequence": "ACGAACGT", "PBM E-score": 0.084},
      {"sequence": "AGGCCGGA", "PBM E-score": -0.196},
      {"sequence": "GATACACC", "PBM E-score": 0.0716},
      {"sequence": "CGGAAACA", "PBM E-score": -0.0925},
      {"sequence": "GAAGTCTC", "PBM E-score": -0.247},
      {"sequence": "CGAGGGCC", "PBM E-score": -0.193},
      {"sequence": "CAATAATC", "PBM E-score": -0.043},
      {"sequence": "AAAGGAGG", "PBM E-score": -0.212},
      {"sequence": "ATGATCAT", "PBM E-score": 0.115},
      {"sequence": "TGAGGTAA", "PBM E-score": 0.085},
      {"sequence": "ATGGGGTC", "PBM E-score": -0.125},
      {"sequence": "CGTAAACC", "PBM E-score": 0.182},
      {"sequence": "TAGACCTA", "PBM E-score": 0.0167},
      {"sequence": "CGTCAAGA", "PBM E-score": -0.0534},
      {"sequence": "GCGCGAGA", "PBM E-score": -0.0264},
      {"sequence": "CTTCTTTC", "PBM E-score": -0.199},
      {"sequence": "CTCGGATA", "PBM E-score": -0.0602},
      {"sequence": "GCTTAAGC", "PBM E-score": 0.187},
      {"sequence": "ATCGCAAT", "PBM E-score": -0.097},
      {"sequence": "CCTCTCGC", "PBM E-score": -0.213},
      {"sequence": "TAATATTA", "PBM E-score": 0.379},
      {"sequence": "CCACATAA", "PBM E-score": -0.00586},
      {"sequence": "CGGCGCAA", "PBM E-score": 0.0253},
      {"sequence": "ACGTCACT", "PBM E-score": -0.093},
      {"sequence": "ATGCCCGA", "PBM E-score": -0.112},
      {"sequence": "AGCATAGA", "PBM E-score": 0.0108},
      {"sequence": "GATTTGGC", "PBM E-score": -0.0812},
      {"sequence": "CTCACTTC", "PBM E-score": -0.198},
      {"sequence": "CCCATTTA", "PBM E-score": 0.0398},
      {"sequence": "CGACGATC", "PBM E-score": -0.0929},
      {"sequence": "CACAAGCC", "PBM E-score": -0.00918},
      {"sequence": "AACAGTGT", "PBM E-score": 0.148},
      {"sequence": "CGCGACAA", "PBM E-score": 0.112},
      {"sequence": "AGCCACAT", "PBM E-score": 0.157},
      {"sequence": "ACTGTAAT", "PBM E-score": 0.251},
      {"sequence": "ACGCCGTG", "PBM E-score": 0.164},
      {"sequence": "GTACAGGA", "PBM E-score": 0.223},
      {"sequence": "ATTCTCAC", "PBM E-score": 0.0859},
      {"sequence": "CTAGAGCA", "PBM E-score": -0.0807},
      {"sequence": "ATCTACTC", "PBM E-score": 0.00965},
      {"sequence": "GCTATGCA", "PBM E-score": -0.0142},
      {"sequence": "ACATGCGG", "PBM E-score": 0.289},
      {"sequence": "ATCGGAGG", "PBM E-score": -0.0907},
      {"sequence": "AGTGGAGG", "PBM E-score": -0.281},
      {"sequence": "AGAGACGC", "PBM E-score": -0.211},
      {"sequence": "CGGTTGAA", "PBM E-score": 0.102},
      {"sequence": "GGGCACGA", "PBM E-score": -0.143},
      {"sequence": "AAGAGCCG", "PBM E-score": -0.309},
      {"sequence": "CGGTCCAC", "PBM E-score": -0.185},
      {"sequence": "GCCCCGGC", "PBM E-score": -0.203},
      {"sequence": "AGCTACTA", "PBM E-score": 0.0524},
      {"sequence": "GACTTATC", "PBM E-score": -0.301},
      {"sequence": "CACTTGAC", "PBM E-score": 0.0938},
      {"sequence": "TAGAATGA", "PBM E-score": 0.082},
      {"sequence": "ACCAGTCC", "PBM E-score": -0.335},
      {"sequence": "GTACTACA", "PBM E-score": 0.369},
      {"sequence": "ACTTTTTG", "PBM E-score": 0.108},
      {"sequence": "GAGGAATA", "PBM E-score": 0.112},
      {"sequence": "ATTAGGCC", "PBM E-score": -0.161},
      {"sequence": "ATCCCGAG", "PBM E-score": -0.153},
      {"sequence": "GCCGCGAC", "PBM E-score": -0.213},
      {"sequence": "GGGCGACA", "PBM E-score": -0.118},
      {"sequence": "AATCATCG", "PBM E-score": 0.0275},
      {"sequence": "AGAGAGAT", "PBM E-score": -0.0161},
      {"sequence": "CCGCTTCA", "PBM E-score": -0.0577},
      {"sequence": "ATGGGTTA", "PBM E-score": 0.177},
      {"sequence": "GGCCCGAA", "PBM E-score": -0.135},
      {"sequence": "AGACCCAC", "PBM E-score": -0.157},
      {"sequence": "GGTCCAAA", "PBM E-score": -0.126},
      {"sequence": "ATTTTAGA", "PBM E-score": -0.0278},
      {"sequence": "CAGACTTC", "PBM E-score": 0.029},
      {"sequence": "GCAGACAA", "PBM E-score": -0.0588},
      {"sequence": "AGGAGGTA", "PBM E-score": -0.16},
      {"sequence": "AGCACGCC", "PBM E-score": -0.177},
      {"sequence": "AGGAACGA", "PBM E-score": -0.183},
      {"sequence": "ATCTGCAA", "PBM E-score": -0.00902},
      {"sequence": "ACTCAGCT", "PBM E-score": -0.074},
      {"sequence": "CCGACTGC", "PBM E-score": -0.166},
      {"sequence": "ACTCTCGC", "PBM E-score": -0.244},
      {"sequence": "ACTGCGGA", "PBM E-score": -0.0818},
      {"sequence": "ACCGCGCT", "PBM E-score": -0.0622},
      {"sequence": "GATCGGGC", "PBM E-score": -0.245},
      {"sequence": "CGCGAAGA", "PBM E-score": -0.0664}
    ]}
  ]
}
